First the molecules themselves.
B1: TPR 5TU (parent)
chain: GGAUCUUCUCGAUCUAACAAAAAAGACAAAUCUGCCACAAAGCUUGAGAGCAUCUUCGGAUGCAGAGGCGGCAGCCUUCGGUGGCGCGAUAGCGCCAACGUUCUCAACUAUGACACGCAAAACGCGUGCUCCGUUGAAUGGAGUUUAUCAUG

This sample is rich in variants without activity. Where only a bound is given, the exact number is not on record here.

This data set covers variants of B1. Nature of the data set: polymerase ribozyme fitness, log enrichment relative to wild type (log ratio); higher = more active; in vitro selection for triplet polymerase activity. Summed up:
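For each subunit of a heterodimeric triplet polymerase ribozyme, a mutant library was built by PCR and transcribed, then taken through a single in vitro selection round in triplicate. Selection involved annealing to a biotinylated primer, the partner subunit and triplets, incubation frozen at −7 °C, gel excision of extended constructs, capture on streptavidin beads and RT-PCR. Genotypes were retained after Illumina sequencing of inputs and outputs only with ≥10 input reads and ≥1 read in each output. Fitness is defined as the logarithm of a genotype's enrichment relative to wild-type enrichment, using inverse-variance-weighted averages across replicates, with the logarithm taken to base 2.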
As for C27U A89U C96U A138G U146G, the “polymerase ribozyme fitness (log ratio)” value is no more than -4.2. Regarding C27G U44G A64C U144G, the “polymerase ribozyme fitness (log ratio)” value is no more than -4.2. Regarding A28U A39U U44A C57U C75U C87U A106U, the “polymerase ribozyme fitness (log ratio)” value was no more than -4.2. Regarding A28G A40G G50A A52G G65U C96U, the “polymerase ribozyme fitness (log ratio)” value is -3.77. Take C27U A39C G50U C123A: the “polymerase ribozyme fitness (log ratio)” value is no more than -4.2. To A28G U61A C72G C87G belongs no more than -4.2; to C27U A29C C72U C93U A106U, no more than -4.2; to A28C U134A, no more than -4.2. Consider C27G G70A G86U C99G, for which the “polymerase ribozyme fitness (log ratio)” value was no more than -4.2. For the variant C27U G34A A52G U53A G84U C85G C99U G141A, the “polymerase ribozyme fitness (log ratio)” value is no more than -4.2. To A28C C32U C69G G83U A147G belongs no more than -4.2; to A28C A60G A66G U77G, no more than -4.2; to A28G C95U C103G C114U A142C, no more than -4.2. C27U U55A G68U C85G: the “polymerase ribozyme fitness (log ratio)” value is no more than -4.2. As to A28C U33G C54U A120G, the “polymerase ribozyme fitness (log ratio)” value was no more than -4.2. To C27U C36A C108G U139G U145C belongs -3.87. Regarding A28G G68A C132A G143C A150G, the “polymerase ribozyme fitness (log ratio)” value was no more than -4.2. To A28C C51U U77C C79G G84U G100U C132G belongs no more than -4.2; to A28U A40C C87A, no more than -4.2.

Consider C27U U44A G46A C54A C116G A147U, for which the “polymerase ribozyme fitness (log ratio)” value is no more than -4.2.

Consider A28C G65U G68A A91U, for which the “polymerase ribozyme fitness (log ratio)” value was no more than -4.2. To A28G C38A G58C G62C U77A C96A C125G belongs no more than -4.2; to C27G G46A C85A C95A A97U A110G, no more than -4.2. For the variant C27U C38A C54U G58A C93A A107C A122G G128A, the “polymerase ribozyme fitness (log ratio)” value is no more than -4.2. To A28U A29G C32U C57G belongs no more than -4.2; to C27U C32G G68U A137G, no more than -4.2. To A28G A37C U61A C63A C76A G80A C96U belongs no more than -4.2; to A28C A40U U53A C96A, no more than -4.2. In the case of C27U G42A A47G A60G G83U U90G C96G A110C C132G, the “polymerase ribozyme fitness (log ratio)” value was no more than -4.2. For the variant A28C G65U C85U, the “polymerase ribozyme fitness (log ratio)” value is no more than -4.2. To C27U C93U U104A belongs -3.11; to A28C C76G C95U, no more than -4.2; to A28C G74A, no more than -4.2. To C27U C43G G46U A52G A64G C85U C132U belongs no more than -4.2; to C27U C79G G83U A107C C125U U144G, no more than -4.2; to C27U C87A C116G A137G, no more than -4.2.

Take A28C C38G A39C G74U G141U: the “polymerase ribozyme fitness (log ratio)” value is no more than -4.2.

For A28G U31A U55A G68U A91U C116U C118G C123G, the “polymerase ribozyme fitness (log ratio)” value was no more than -4.2. To A28G U31G C36A U56A C95A G141C belongs -3.69; to A28C A41G C51A U78G G80U G88A C96G U135A G141A, no more than -4.2. To A28C A64C C96A C116G U146G belongs no more than -4.2; to C27U G86U A115C A142U, no more than -4.2; to A28U A30C C79A, no more than -4.2. In the case of C27U A28U U53G C93A, the “polymerase ribozyme fitness (log ratio)” value is no more than -4.2. On to A28G C85G A150C, for which the “polymerase ribozyme fitness (log ratio)” value is no more than -4.2.

On to C27U A29U G58C G94A, for which the “polymerase ribozyme fitness (log ratio)” value is no more than -4.2. On to A28G U53A C76A U78G A91U C95U, for which the “polymerase ribozyme fitness (log ratio)” value is no more than -4.2. For A28G A37C C57A C85A U134G G136C, the “polymerase ribozyme fitness (log ratio)” value was no more than -4.2.

As for C27U A52U A64G C96U G124A, the “polymerase ribozyme fitness (log ratio)” value is no more than -4.2. For the variant C27G C54A G74A C87G U102G, the “polymerase ribozyme fitness (log ratio)” value was no more than -4.2. Take C27G C57G C87U G136A U146G: the “polymerase ribozyme fitness (log ratio)” value is no more than -4.2. To C27U C51U U53A U101G belongs -3.98; to A28C C87U G94A C96U C103A C108A C125A, no more than -4.2.

For the variant C27G G71A, the “polymerase ribozyme fitness (log ratio)” value was no more than -4.2. To C27U C76G G84U belongs no more than -4.2; to A28G A40G G50U C51A C99U A110U C132U, no more than -4.2. To A28U A40C U44A C57U A98U G100A A107G belongs no more than -4.2; to A28G G42U G50C G59A C95U C99A C125U, no more than -4.2; to C27G U53A C79A C87U A113U A138C, no more than -4.2. To A28C U55G G68A G100A belongs no more than -4.2; to A28C G50A U90G, no more than -4.2. C27G C51U G74A C93U C95G G136A U151A: the “polymerase ribozyme fitness (log ratio)” value is no more than -4.2. C27U U45A G46U C51U C57A U77A A91U U127C: the “polymerase ribozyme fitness (log ratio)” value is no more than -4.2.

Regarding C27U U61C A91U, the “polymerase ribozyme fitness (log ratio)” value was no more than -4.2. Turning to A28U A41C C75U G81A C103G C149G, the “polymerase ribozyme fitness (log ratio)” value was no more than -4.2. A28C A60U A73G C93A C125U: the “polymerase ribozyme fitness (log ratio)” value is no more than -4.2. As to C27U G94A, the “polymerase ribozyme fitness (log ratio)” value is -2.73. To A28C G46C G84A C85U C96U C116U C149U belongs no more than -4.2; to C27U C93U, -3.3.

As for A28C C63U C85U A142C G152U, the “polymerase ribozyme fitness (log ratio)” value is no more than -4.2. To A28C U33C C93A G126C belongs no more than -4.2; to A28C C57U G84A C96U G124U, no more than -4.2; to A28C G80C C87G, no more than -4.2. To A28C A60G A64G G67C G80U C85A belongs no more than -4.2; to A28G C57A A73G C87U U139A, no more than -4.2; to A28G G70C G133C, no more than -4.2. Regarding A28G G92C C99U A115G G143U, the “polymerase ribozyme fitness (log ratio)” value was no more than -4.2. To C27G C51U G80C G86U belongs no more than -4.2; to A28G A49C C96U C132U, no more than -4.2. To A28G A52U C57A C72G G86C C96U belongs no more than -4.2; to C27U C96A G140C U144G A150U, no more than -4.2.

As for A28C A40C G81A G94A G133A G141U, the “polymerase ribozyme fitness (log ratio)” value was no more than -4.2. With A28C G59U A91G U135C, the “polymerase ribozyme fitness (log ratio)” value was no more than -4.2.

The values above are taken from the RNAGym collection of RNA variant scans (doi:10.1073/pnas.2313332121).
